# Where “and” joins values, the source holds several entries; their conditions need not be identical. Equal values may be shown once. About 710 (0.99%) of roughly 72,000 compounds were called active. The shares of active, inactive and inconclusive entries below differ from those in the screen. The call rests on the fitted dose curve; in most records, active means well fitted inhibition curve with a large enough effect; inconclusive means small, poorly fitted or top-dose-only effect; inactive means no such curve, though single readings can be large or run the other way. Potencies beside an inconclusive call are fits to weak or partial responses and may not hold up.
# Assay: qHTS Assay for Inhibitors of the ERK Signaling Pathway using a Homogeneous Screening Assay; further: nearly all actives have a fitted effect of over 55% in size
# Details: HEK293-V1b, vasopressin-stimulated pERK AlphaScreen; activity, negative = inhibition: at 57.5 µM (top of the series) unless noted
# Procedure, shortened: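 HEK293 cells stably expressing V1b receptor, seeded overnight in 1% FBS, were treated with compounds for 30 min at 37C, then stimulated 5 min with 25 nM vasopressin; phospho-ERK read by AlphaScreen SureFire after lysis.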
# On the % scale 0 is the no-effect control and ±100 the full control effect; potency means the concentration at half of the fitted maximal effect; tags describe the fitted curve by direction and shape.
Structure (SMILES),Potency,"activity, negative = inhibition"
O=C(CCCN1C(=O)CSc2ncccc21)N1CCN(Cc2ccccc2)CC1,"inconclusive: 20 µM [inhibitor, partial curve]",–
CS(=O)(=O)N1CCN(c2ccccc2NC(=O)c2ccc(Cl)cc2)CC1,"inconclusive: 3.98 µM [inhibitor, full curve, poor fit]",–
COc1cc(=O)n(C)c2c(OCC(O)C(C)(C)O)cccc12 (stereo not given),"inconclusive: 15.8 µM [inhibitor, partial curve]",–
Cn1cc(-c2nc3cnc(N4CCOCC4)nc3n(CCC#N)c2=O)c2ccccc21,inactive,–
COC(=O)c1ccc(Cn2cnc3c(cnn3-c3ccc(C)c(C)c3)c2=O)o1,"inconclusive: 39.8 µM [inhibitor, single point]",–
O=C1c2oc3ccccc3c(=O)c2C(c2cccc(Br)c2)N1Cc1ccco1 (stereo not given),inactive,–
NC(=O)NC(CC(=O)OCC(=O)NC(=O)NCc1ccco1)c1ccc(Cl)cc1 (stereo not given),"inconclusive: 25.1 µM [inhibitor, partial curve, poor fit]",–
Cc1cc(-c2ccccc2)nc2cc(C(N)=O)nn12,"inconclusive: 15.8 µM [inhibitor, partial curve]",–
CCOC(=O)c1cccc(NC(=O)CSc2nnc(COc3ccccc3)n2CC)c1,"inconclusive: 31.6 µM [inhibitor, single point]",–
Clc1ccc(OCc2nn3c(C4CCCCC4)nnc3s2)c(Cl)c1,"inconclusive: 15.8 µM [inhibitor, partial curve]",–
COc1c2c(cc3occ(-c4ccc5c(c4)OCO5)c(=O)c13)OC(C)(C)C=C2,"inconclusive: 39.8 µM [inhibitor, single point]",–
COC(=O)c1cc(OC)c(OC)cc1NC(=O)CSc1nnnn1Cc1ccccc1,"inconclusive: 0.199 µM [inhibitor, full curve, poor fit]",–
Cc1cc(N2CCN(S(=O)(=O)c3ccc(Cl)cc3)CC2)c2ccccc2n1,"inconclusive: 31.6 µM [inhibitor, single point]",–
O=C(N1CCOCC1)C12CC3CC(C1)CC(C(=O)N1CCOCC1)(C3)C2,"inconclusive: 31.6 µM [inhibitor, single point]",–
CCCCCCNc1cc2n(c(=O)n1)CCc1cc(OC)c(OC)cc1-2,"inconclusive: 5.01 µM [inhibitor, full curve]",–
CN(C)Cc1ccccc1-c1nccc(NC2CC2)n1,inactive,–
O=S(=O)(O)c1ccc(NN(c2c(O)ccc3ccccc23)S(=O)(=O)O)cc1,–,inactive: -17% [at 11.5 µM]
COc1cc(OC)c(-c2nn3c(-c4ccco4)nnc3s2)cc1OC,"inconclusive: 12.6 µM [inhibitor, partial curve]",–
Clc1ccc(Cn2ncc3c(NCc4cccnc4)ncnc32)cc1,"inconclusive: 39.8 µM [inhibitor, single point]",–
CN(C)S(=O)(=O)N1CCN(S(=O)(=O)c2ccc(F)cc2)CC1,inactive,–
CCCCn1c(SCC2CCCCO2)nc2cc(S(N)(=O)=O)ccc21 (stereo not given),"inconclusive: 39.8 µM [inhibitor, single point]",–
O=C(Nc1nc(-c2ccccc2)ns1)c1cccs1,inactive,–
Cc1ccsc1CNn1cnnc1SCc1ccccc1F,"inconclusive: 20 µM [inhibitor, single point]",–
CCCc1cc(=O)[nH]c(Nc2ccc(N3CCCCC3)cc2)n1,"inconclusive: 39.8 µM [inhibitor, single point]",–

Structure (SMILES),Potency,"activity, negative = inhibition"
Cc1ccc(-c2nn3c(-c4ccco4)nnc3c3ccccc23)cc1S(=O)(=O)N1CCOCC1,"inconclusive: 6.31 µM [inhibitor, partial curve]",–
CCn1c(C(=O)N2CCc3ccccc3C2)cc2sccc21,"inconclusive: 31.6 µM [inhibitor, partial curve]",–
CCCCCCCCO,inactive,–
C(=C\c1ccccc1)/CSc1nnc(-c2ccncc2)n1Cc1ccco1,"inconclusive: 20 µM [inhibitor, partial curve]",–
COc1ccc(-c2nc(-c3ccc(Br)cc3)no2)c(OC)c1,inactive,–
Cc1ccccc1NC(=O)Cn1cccc1,"inconclusive: 12.6 µM [inhibitor, partial curve]",–
Nc1ccc(N=Nc2ccccc2)c(N)n1,"inconclusive: 15.8 µM [inhibitor, single point] and inconclusive: 25.1 µM [inhibitor, partial curve, poor fit]",–
CCSC1=C(C#N)C2(CCCCC2)C(C#N)=C(N)N1,"inconclusive: 6.31 µM [inhibitor, partial curve]",–
O=C(Nc1sccc1C(=O)NCc1ccco1)c1cccnc1,"inconclusive: 39.8 µM [inhibitor, single point]",–
Cn1cccc1C(=O)N1CCC[C@@]2(CCN(c3ccccc3)C2)C1,"inconclusive: 12.6 µM [inhibitor, partial curve]",–
O=C(OCC(=O)N1CCN(C(=O)c2ccco2)CC1)c1ccccc1OCc1ccc(Cl)cc1,–,inconclusive: -30.8% [inhibitor]
Oc1ccc(Nc2nc(NCC3CCCO3)c3ccccc3n2)cc1 (stereo not given),active: 12.6 µM,–
CCOC(=O)/C=C1\CC(=O)Nc2cc(C)c(C)cc2N1,"inconclusive: 1 µM [inhibitor, full curve, poor fit]",–
COc1cccc2c(C)nc(Nc3nc(CSc4nnc(C)s4)cc(=O)[nH]3)nc12,inactive,–
COC(=O)CSc1nnc(-c2cccnc2)n1-c1cccc(OC)c1,"inconclusive: 39.8 µM [inhibitor, single point]",–
CN1C(=O)c2cccc3c(S(=O)(=O)NCc4ccco4)ccc1c23,"inconclusive: 20 µM [inhibitor, partial curve]",–
CC1O[C@@H](Oc2c(-c3ccc(O)c(O)c3)oc3cc(O)cc(O)c3c2=O)C(O)C(O)C1O (stereo not given in full),inactive,–
COc1ccc(N=c2oc3cc(O)ccc3cc2C(=O)NCC2CCCO2)c(OC)c1 (stereo not given),"inconclusive: 10 µM [inhibitor, partial curve]",–
O=C(CN1C(=O)CNC1=O)Nc1cccc(C(F)(F)F)c1,–,inconclusive: -37.3% [inhibitor]
Cc1cc(C)nc(SCc2nnc(SCc3ccccc3Cl)o2)n1,inactive,–
CSc1nc(-c2ccco2)nn1C(=O)c1ccc(C)cc1,"inconclusive: 25.1 µM [inhibitor, partial curve]",–
CN1CCN(CCCN)CC1,–,inactive: -3.29% [at 11.5 µM]
CCOC(=O)c1ccc(NC(=O)C2CCN(S(=O)(=O)c3ccccc3)CC2)cc1,"inconclusive: 31.6 µM [inhibitor, single point]",–
c1ccc2sc(-c3ccc4c(c3)OCO4)nc2c1,inactive,–

Structure (SMILES),Potency,"activity, negative = inhibition"
CN(C)c1ncc2nc(-c3cccs3)c(=O)n(CCc3ccccc3)c2n1,inactive,–
O=C(CCCn1c(=O)c2sccc2n(Cc2ccc(F)cc2)c1=O)NCc1ccco1,"inconclusive: 15.8 µM [inhibitor, partial curve]",–
CCN(CC)CCCNC(=O)c1cc2c(-c3ccc(Cl)cc3)nn(C)c2s1,"inconclusive: 31.6 µM [inhibitor, single point]",–
COc1ccc(-n2c(=O)c(-c3ccc(Cl)cc3)nc3cnc(N(C)C)nc32)cc1,inactive,–
O=c1c(-c2cc(F)cc(F)c2)nc2cnc(Oc3ccccc3)nc2n1C[C@H]1CCCO1,"inconclusive: 20 µM [inhibitor, partial curve]",–
COc1ccc(OCCCC(=O)Nc2ccc3c(c2)OCCO3)cc1,"inconclusive: 39.8 µM [inhibitor, single point]",–
COc1ccc(Cl)c(NC(=O)Cn2nnc(-c3ccccc3N)n2)c1,"inconclusive: 25.1 µM [inhibitor, partial curve]",–
O=C(c1cccc(F)c1)N1CCC2(CC1)CCN(c1ccc(-c3ccccc3)cc1)CC2,inactive,–
CC(C)=CCC/C(C)=C/COc1ccc2ccc(=O)oc2c1,inactive,–
Cc1ccc2[nH]c(=O)c3cc(C(=O)N(C)Cc4ccco4)sc3c2c1,inactive,–
O=C(OCc1nnc(-c2ccccc2)o1)c1ccc(S(=O)(=O)NCc2ccco2)cc1,"inconclusive: 39.8 µM [inhibitor, single point]",–
CC(C)COC(=O)Cc1c(O)c2ccccc2[nH]c1=O,inactive,–
O=C(Nc1nc2ccc(S(=O)(=O)N3CCCCC3)cc2s1)c1ccncc1,"inconclusive: 15.8 µM [inhibitor, partial curve]",–
CCOC(=O)C1CCN(S(=O)(=O)c2ccc(-c3nc4ccccc4s3)s2)CC1,inactive,–
COc1ccccc1N1CCN(C[C@@H](C(=O)NC(C)(C)C)c2ccccc2)CC1,inactive,–
O=C(CN1CCCCC1)Nc1cccc(-n2cnnn2)c1,"inconclusive: 39.8 µM [inhibitor, single point]",–
Cc1cccc2cc(C(c3nnnn3Cc3ccc4c(c3)OCO4)N3CCCC3)c(=O)[nH]c12 (stereo not given),"inconclusive: 39.8 µM [inhibitor, single point]",–
O=C(c1ccccc1)N(Cc1ccc2c(c1)OCO2)Cc1nc2ccccc2c(=O)[nH]1,"inconclusive: 39.8 µM [inhibitor, single point]",–
Cc1cc(C2(c3cc(C)c(O)cc3C)OS(=O)(=O)c3ccccc32)c(C)cc1O,"inconclusive: 15.8 µM [inhibitor, partial curve, poor fit]",–
O=C(Nc1cccc2cccnc12)c1ccc(Br)o1,inactive,–
OC[C@@H]1CCC[C@H](n2cnc3c(=S)nc[nH]c32)O1,–,inactive: -6.6% [at 11.5 µM]
COc1cc(C2C(C#N)=C(N)Oc3n[nH]c(-c4ccccn4)c32)cc(OC)c1OC (stereo not given),"inconclusive: 15.8 µM [inhibitor, partial curve]",–

# Source: PubChem BioAssay AID995 (National Center for Advancing Translational Sciences (NCATS), 2007)
